Several values for one entry are separate records, joined by “and”; a condition that tells them apart may be missing. Identical values can stand only once. Among all 420,000 compounds or so, about 64,000 (15%) were called active. This list was built around the results that the source calls inconclusive (neither active nor inactive); the mix of calls is not that of the screen. Calls follow the shape of the dose curve; as a rule, active = well fitted inhibition curve with a large enough effect; inconclusive = small, poorly fitted or top-dose-only effect; inactive = flat fitted curve, though single readings scatter. A potency beside an inconclusive call is a rough fit, not a confirmed value.
assay: qHTS for Inhibitors of human tyrosyl-DNA phosphodiesterase 1 (TDP1): qHTS in cells in absence of CPT; settings: DT40 Tdp1-/- hTDP1 cells, no CPT, ATP luminescence, 48 h; activity change, negative = growth inhibition: at 46.2 µM (top of the series); also: nearly all actives have a fitted effect of over 55% in size
Procedure, shortened: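 Readout: luminescence from CellTiter-Glo after 30 min in the dark at RT. Cells: DT40 Tdp1-/- with stable hTDP1, 400/well. Exposure: compounds alone, ≥48 hr, 37 °C.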
% is scaled to controls: 0 for no effect and ±100 for the full control effect; potency is read from the fitted curve at half-maximal effect; tags tell the direction and shape of the fitted curve.

Row | Structure (SMILES) | Potency | activity change, negative = growth inhibition
1 | Cn1ccnc1SCC(=O)N(C1CCCCC1)C1CCCCC1 | active: 14.6 µM | –
2 | CCOC(=O)N1CCN(C(=O)/C=C/c2ccc(C(C)(C)C)cc2)CC1 | active: 16.4 µM | –
3 | COc1ccccc1CNC(=O)CCC1N=C2c3ccccc3N=C(SCc3ccc(C)cc3C)N2C1=O (stereo not given) | inconclusive: 18.4 µM [inhibitor, single point] | –
4 | Clc1ccc(-c2nc(-c3ccccn3)no2)cc1Cl | inconclusive: 11.6 µM [inhibitor, single point] | –
5 | CC(=O)N1CCN(C(=O)c2ccc(S(=O)(=O)Nc3ccccc3Cl)cc2)CC1 | inactive | –
6 | CC(C)NC(=O)c1nn(-c2ccccc2F)nc1CO | inactive | –
7 | COc1ccc(NC(=O)CSc2ccc3nc(-c4ccccc4)cn3n2)cc1OC | inactive | –
8 | O=C(O)c1oc2ccccc2c1CSc1ccc(Cl)cc1 | inconclusive: 32.6 µM [inhibitor, partial curve, poor fit] | –
9 | Cc1ccc(F)c(NC(=O)/C(C#N)=C(\O)c2ccc(C(C)(C)C)cc2)c1 | inconclusive: 32.6 µM [inhibitor, single point] | –
10 | CC(N=C(NC#N)Nc1ccncc1)C(C)(C)C (stereo not given) | inconclusive: 29.9 µM [inhibitor, single point] and inconclusive: 15.8 µM [inhibitor, partial curve] | –
11 | Cc1c(C(=O)N2CCN(Cc3ccccc3)CC2)sc2ncnc(N3CCOCC3)c12 | inactive | –
12 | Cc1ccccc1Nc1c(-c2ccc(N3CCOCC3)cc2)nc2ccccn12 | inconclusive: 29.1 µM [inhibitor, single point] | –
13 | COC(=O)C1=C(C)NC(=O)/C1=C\c1cc(C)n(-c2cc(C)cc(C)c2)c1C | inconclusive: 29.1 µM [inhibitor, single point] | –
14 | CCCCOCCCNC(=O)/C=C/c1ccccc1Cl | inconclusive: 17.8 µM [inhibitor, partial curve, poor fit] | –
15 | COc1ccc(-c2nc(SCC(=O)Nc3ccc4c(c3)OCCO4)c(-c3ccc(C)cc3)[nH]2)cc1OC | active: 18.4 µM | –
16 | NC(=O)CSc1nnc(Cn2c(=O)sc3ccccc32)n1-c1ccccc1 | inactive | –
17 | CC(=O)NC(C)(c1ccccc1)c1nc(-c2cccc(C(F)(F)F)c2)cs1 (stereo not given) | active: 14.6 µM | –
18 | COc1ccccc1C(=O)C1CCCN(C(=O)c2cn3cc(Cl)ccc3n2)C1 (stereo not given) | inconclusive: 23.1 µM [inhibitor, single point] | –
19 | c1ccc(-c2cc(-c3nn4c(-c5ccco5)nnc4s3)c3ccccc3n2)cc1 | active: 4.47 µM | –
20 | CCOc1ccc(N(CC(=O)NCc2ccc(F)cc2)S(=O)(=O)c2c(C)noc2C)cc1 | inconclusive: 29.1 µM [inhibitor, single point] | –
21 | CC(C)Cc1nn2c(=O)cc(COc3ccc(NC(=O)c4ccco4)cc3)nc2s1 | inactive | –
22 | COc1ccc(CNCC(O)(c2ccccc2)c2ccc(F)cc2)cc1OC (stereo not given) | active: 14.6 µM | –

Row | Structure (SMILES) | Potency | activity change, negative = growth inhibition
23 | COc1cccc(/C=N/NC(=O)Cn2nc([N+](=O)[O-])cc2C)c1 | inactive | –
24 | C=CCn1c(COc2ccccc2)nnc1SCC(=O)N/N=C/c1ccc(C)cc1 | inconclusive: 23.1 µM [inhibitor, single point] | –
25 | Cc1ccc(CNC(=O)CN2C(=O)COc3ccc(S(=O)(=O)Nc4ccccc4)cc32)cc1 | inconclusive: 29.1 µM [inhibitor, single point] | –
26 | COc1ccc(C(=O)C2CCCN(C(=O)c3ccnn3C)C2)c(C)c1 (stereo not given) | inactive | –
27 | COc1ccc(-c2nn(-c3ccccc3C)cc2CNC(C)c2cn(C)nc2C)cc1F (stereo not given) | inconclusive: 16.4 µM [inhibitor, partial curve, poor fit] | –
28 | O=C(C[n+]1cc(Br)cc2ccccc21)c1ccc(Br)cc1 | inconclusive: 17.8 µM [inhibitor, single point] and inconclusive: 25.9 µM [inhibitor, single point] | –
29 | Cc1ccc2c(c1)-c1ncc(C(=O)c3ccccc3O)cc1CO2 | inconclusive: 14.6 µM [inhibitor, partial curve, poor fit] | –
30 | Cc1cc(C)cc(NC(=O)CSc2nc(-c3ccccc3)c3cc(F)ccc3n2)c1 | active: 18.4 µM | –
31 | CCOc1cc(Br)c(CN2C(=O)NC3(CCCCCC3)C2=O)cc1OCC | inconclusive: 23.1 µM [inhibitor, single point] | –
32 | O=C(NCCN1CCC(n2c(=O)[nH]c3ccccc32)CC1)c1cccs1 | inactive | –
33 | CCc1ccc(NC(=O)CC2C(=O)N(c3cccc(OC)c3)C(=O)N2C2CCCC2)cc1 (stereo not given) | inconclusive: 20.6 µM [inhibitor, single point] | –
34 | CCSC1=C(C#N)C(=O)n2c1cc1c2CCCC1 | inconclusive: 29.1 µM [inhibitor, single point] | –
35 | CC1CCCC(C)N1C(=O)COC(=O)c1ccc(Br)c(S(=O)(=O)N2CCOCC2)c1 (stereo not given) | – | inconclusive: -32.7% [inhibitor]
36 | CC(=O)C12OC1CC1C3CCC4=CC(=O)CCC4(C)C3CCC12C (stereo not given) | inconclusive: 20.6 µM [inhibitor, single point] | –
37 | COc1ccccc1CNC(=O)c1ccc2nc(C)c(N(C)Cc3ccc(NC(C)=O)cc3)n2c1 | active: 14.6 µM | –
38 | CCCCC1CCC(C(=O)N(C)CC(=O)Nc2cccc(F)c2)CC1 (stereo not given) | inconclusive: 29.1 µM [inhibitor, single point] | –
39 | CC(=O)Cc1nsc(NC(=O)c2cn(-c3ccccc3)nc2-c2ccc(Br)cc2)n1 | inactive | –
40 | COc1cccc(NC(=O)COC(=O)CCOc2ccccc2OC)c1 | inactive | –
41 | CNC(=O)C1Cc2ccccc2CN1S(=O)(=O)c1cccs1 (stereo not given) | inactive | –
42 | N#Cc1ccc(C(=O)N2CCCC(c3cc(C(=O)NCc4cccnc4)no3)C2)cc1 (stereo not given) | inconclusive: 13 µM [inhibitor, partial curve] | –
43 | O=C(CSc1nnc2ccccn12)Nc1nsc(-c2ccccc2)n1 | inconclusive: 16.4 µM [inhibitor, single point] | –
44 | CC(=O)OCC(=O)[C@@]1(OC(C)=O)[C@@H](C)C[C@H]2[C@@H]3C[C@H](F)C4=CC(=O)C=C[C@]4(C)[C@@]3(F)[C@@H](O)C[C@@]21C | inconclusive: 33.5 µM [inhibitor, single point] | inconclusive: -30.9% [inhibitor]
